Experimental data taken from PubChem BioAssay AID1963576 (National Center for Advancing Translational Sciences (NCATS), 2024).
The whole screen tested about 46,000 compounds, of which about 60 (0.1%) were called active. Roughly 3% stayed inconclusive and do not appear here. Calls follow the shape of the dose curve; as a rule, active = well fitted inhibition curve with a large enough effect; inconclusive = small, poorly fitted or top-dose-only effect; inactive = no such curve, though single readings can be large or run the other way. The list shows a part of the results.

experiment: Primary qHTS assay for Inhibitors of ovarian cancer metastasis using an organotypic tumor microenvironment (TME) model.; also: nearly all actives have a fitted effect of over 65% in size;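 as to activity change, negative = inhibition: plate controls were DMSO wells for no effect and tomatine positive control wells for full effect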; conditions: SKOV3ip1-GFP adhesion/invasion on 3D omental model, fluorescence; series mostly up to 45.8 µM; activity change, negative = inhibition: at the top concentration
Summary of the method: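 Adhesion/invasion was scored as fixed GFP-labeled SKOV3ip1 cell counts (488/509 nm), normalized to DMSO and tomatine controls. Cancer cells in serum-free medium, with four compound doses (0.36-46 umol/L), sat 2 hr at RT then 16 hr at 37 C on a 48 hr fibroblast/mesothelial/ECM culture.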

Activity change, negative = inhibition, inactive:
COc1cccc(N2CCN(c3ncnc4onc(-c5ccc(Cl)cc5)c34)CC2)c1 -7.9%
N#C/C(=C\c1ccc(Cl)cc1)c1nc(-c2cc3c(ccc4ccccc43)oc2=O)cs1 3.36%
CCOc1ccc(NC(=O)CN(C)S(=O)(=O)c2cnc[nH]2)cc1 0.444%
O=C(CSc1nnc2[nH]c(=O)cc(-c3ccccc3)n12)Nc1cc(C(F)(F)F)ccc1Cl -1.63%
Cc1ccc2c(c1)N(C(=O)Nc1cccc3c1CCCC3)CC(C)O2 (stereo not given) 33.6%
Brc1ccc2nc(SCCOc3ccccc3)[nH]c2c1 8.48%
Cc1ccc2oc(-c3cc(NC(=O)/C=C/c4ccco4)ccc3Cl)nc2c1 -3.18%
COc1cc2c(cc1OC)C(COc1ccc3c(C)cc(=O)oc3c1)N(C(=O)CC(C)C)CC2 (stereo not given) -0.911%
CC(=O)Nc1nonc1-c1nc2ccccc2n1Cc1ccccc1Br -3.1%
COc1ccccc1NC(=O)c1cc(S(=O)(=O)NCCC2=CCCCC2)ccc1F 10.7%
CCOc1ccc(NC(=O)c2c(NC(=O)c3cccs3)sc3c2CCC(C(C)(C)C)C3)cc1 (stereo not given) -0.735%
CCn1c(=O)cc(SCC(=O)N2CCN(c3ccccc3F)CC2)c2ccccc21 1.36%
O=C(NCc1cccc(Cl)c1)C1CCCN(c2ncnc3onc(-c4ccc(F)cc4)c23)C1 (stereo not given) 3.48%
CN1CCN(C(CNC(=O)c2ccccc2)c2ccc3c(c2)OCO3)CC1 (stereo not given) 1.1%
Cc1cccc(Cn2nnc3c(=O)[nH]c(C4CCN(C(=O)c5ccc(F)cc5)CC4)nc32)c1 -11.9%
CCOC(=O)c1noc2nc(C)n(Cc3ccc([N+](=O)[O-])cc3)c(=O)c12 -2.77%
Cc1ccccc1CN1CCCN(CC(=O)Nc2ccc3c(c2)OCCO3)S1(=O)=O 3.29%
COC(=O)c1cc(NC(=O)c2ccc(-c3ccc(Cl)cc3Cl)o2)cc(C(=O)OC)c1 0.209%
CNC(=O)c1ccc(CSc2nc3ccncc3n2Cc2ccc(C)cc2)cc1 7.23%
COc1cc(Cl)c(C)cc1NC(=O)c1cnc2c(-c3cccc(C)c3)c(C)nn2c1C -1%
Cc1ccsc1CN1CCc2nc(N3CCN(c4ccccc4F)CC3)ncc2C1 1.87%
Cc1cc(C)cc(N2CCn3c2nc2c3c(=O)n(CCCc3ccccc3)c(=O)n2C)c1 -1.14%
COCc1cc(C)nc2sc(C(=O)Nc3cc(C)ccc3F)c(N)c12 -4.44%
COCCCNC(=O)C1CCCN(c2nn3cc(-c4ccc(C)cc4)nc3s2)C1 (stereo not given) 18.4%
Cc1ccc(-c2nc3cc(C(C)C)ccc3o2)cc1NC(=O)c1cc([N+](=O)[O-])ccc1N1CCOCC1 -17.7%
Cc1ccc(CNC(=O)CCC(=O)N2CCSc3ccccc32)cc1 9.54%
Cc1ccc(CNC(=O)CCCn2c(=O)c3ccccc3n(Cc3ccc(Cl)cc3)c2=O)cc1 -2.6%
CN(C(=O)CSc1nnc(-c2ccc([N+](=O)[O-])cc2)o1)c1ccccc1 0.319%
O=C(Nc1ccc(F)c(Cl)c1)N1CCC(CN2CCc3ccccc3C2)CC1 -3.94%
Cc1cccc(-c2nc3ccccc3n3c(-c4ccccc4)c4c(=O)n(C)c(=O)n(C)c4c23)c1 -3.47%
O=c1cc(N2CCOCC2)oc2c(-c3cccc4c3sc3ccccc34)cccc12 -28.9%
CCc1ccc(NC(=O)Cn2cnc3sc(C)c(S(=O)(=O)N4CCN(c5ccccc5OC)CC4)c3c2=O)cc1 -4.06%
COc1ccccc1-c1cc2nc(C)c(CCC(=O)Nc3cc(C)ccc3C)c(C)n2n1 7.77%
O=C(CSc1nc2c(c(=O)[nH]1)CN(Cc1ccc3c(c1)OCO3)CC2)Nc1ccc(F)c(F)c1 -5.97%
CCOC(=O)c1cnc2ccc(Cl)cc2c1Nc1ccc(N2CCOCC2)cc1 14.9%
O=C(Nc1ccc(C(=O)N2CCN(c3ccccc3)CC2)cc1)c1nsc2ccccc12 -9%
COC(=O)c1ccccc1-n1cc2c(c1-c1cccc(C)c1)c(=O)n(C)c(=O)n2C 5.11%
COc1ccc(-n2nnc(-c3nc(-c4cccs4)no3)c2N)cc1 -0.0448%
CC(C)(C)OC(=O)N1CCC(c2c(C(=O)N3CCOCC3)cnn2-c2cccc(F)c2)CC1 -0.689%
Cc1oc(-c2ccccc2F)nc1CSc1nnc(C)n2c1cc1occc12 8.66%
Cc1ccc(CNC(=O)c2ccc(-c3nc(CS(=O)(=O)c4ccc(C)cc4)c(C)o3)cc2)cc1 3.3%
COc1cc2c(cc1O)CCC1C2CC[C@@]2(C)C1CC[C@@H]2O (stereo not given in full) -21.4%
CCc1ccccc1NC(=O)C(=O)NCCc1sc(-c2cccc(F)c2)nc1C 0.329%

outcome, inactive:
O=C(Cn1c(=O)n(-c2ccccc2)c(=O)c2sc3ccccc3c21)NC1CCCC1
COc1ccc(NC(=O)NC(C)c2c(-n3cccc3)sc3c2CCN(C)C3)c(OC)c1 (stereo not given)
Nc1c(C(=O)Nc2cccc(C(F)(F)F)c2)c2ccccn2c1C(=O)c1ccccc1
COc1ccc(NC(=O)CCc2c(C)nc3c(-c4ccc(F)cc4)c(C)nn3c2C)c(OC)c1
O=C(Nc1ccc(C(F)(F)F)cc1)N1CCC(N2CCCCC2)CC1
CCc1ccc(NC(=O)N2CCN(C(=O)c3nsc4ccccc34)CC2)cc1
CNC(=O)C1CCN(c2nc3ccccc3nc2C(F)(F)F)CC1
COc1cccc(CNC(=O)Cn2c(C)c3cnn(-c4ccccc4)c(=O)c3c2C)c1
CCOc1ccc(OCC)c(Nc2nc3ccc(Cl)cc3n3cnnc23)c1
CC(C)CN(CCNC(=O)c1cc(-c2ccc(Cl)s2)nc2ccccc12)CC(C)C
CCCN(C(=O)Cn1cc(S(=O)(=O)N2CCN(c3ccccc3F)CC2)c2ccccc2c1=O)c1cccc(C)c1
CC(C)(C)C(=O)Cn1c(=O)n(-c2ccc(Cl)c(Cl)c2)c(=O)c2c3c(sc21)CCCC3
COc1ccc(CCNC(=O)Cn2cc(C(=O)c3ccc(F)cc3)c(=O)c3ccc(C)nc32)cc1OC
CCc1cccc(NC(=O)c2ccc(CNS(=O)(=O)c3ccc4c(c3)C(C)(C)C(=O)N4C)cc2)c1
Cc1ccc(-n2ncc3c(NCC(C)C)ncnc32)c(C)c1
Cc1cccc(CCNC(=O)C2CCN(c3nc4ccccc4nc3C(F)(F)F)CC2)c1
Cc1ccc(C)c(NC(=O)Nc2cccc(-c3cn4cccnc4n3)c2)c1
